Experimental data as given in PubChem BioAssay (NCATS).
Where “and” joins values, the source holds several entries; their conditions need not be identical. Equal values may be shown once. The shares of active, inactive and inconclusive entries below differ from those in the screen. Where the call is inconclusive, the potency comes from a doubtful curve fit. Calls of active or inactive are those of the source. The call rests on the fitted dose curve; in most records, active means well fitted inhibition curve with a large enough effect; inconclusive means small, poorly fitted or top-dose-only effect; inactive means flat fitted curve, though single readings scatter.

What follows are compounds tested against Phospholipid hydroperoxide glutathione peroxidase GPX4 (Homo sapiens) (UniProt P36969) (assay: Primary qHTS Assay for Inhibitors of Recombinant Selenoprotein Glutathione Peroxidase 4 (GPX4) (AID 1845192; further: nearly all actives have a fitted effect of over 65% in size; on activity change, negative = inhibition: on the % scale 0 is the no-effect control and ±100 the full control effect)). Settings: recombinant GPX4, GR-coupled NADPH fluorescence, 15 min; series mostly up to 50 µM; activity change, negative = inhibition: at the top concentration.
UniProt P36969, sequence (P36969 whole entry, looked up): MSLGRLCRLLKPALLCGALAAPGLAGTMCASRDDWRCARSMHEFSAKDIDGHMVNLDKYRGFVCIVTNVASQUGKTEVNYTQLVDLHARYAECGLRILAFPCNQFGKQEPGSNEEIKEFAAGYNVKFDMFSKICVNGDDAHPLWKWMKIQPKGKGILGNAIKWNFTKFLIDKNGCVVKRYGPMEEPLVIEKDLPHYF
How it was run: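 Steps: GPX4 plus compound, 30 min RT; add GR/GSH/NADPH master mix; start with cumene hydroperoxide; read 340/450 nm fluorescence at 0 and 15 min. Finals were 200 nM GPX4, 1 mM GSH, 0.5 mM CHP, 0.5 mM NADPH, 100 nM GR.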
Potency means the concentration at half of the fitted maximal effect; tags describe the fitted curve by direction and shape.

Compound | Potency
NC(=NCc1ccccc1)NC(=O)c1nc(Cl)c(N)nc1N | inconclusive: 28.6 µM [inhibitor, single point] and inconclusive: 35.5 µM [inhibitor, single point]
CN(C)c1nc(N(C)C)nc(N(C)C)n1 | inactive
CNC(=O)c1c(-c2ccc(F)cc2)oc2cc(N(CCO)S(C)(=O)=O)c(C3CC3)cc12 | inconclusive: 22.7 µM [inhibitor, single point] and inconclusive: 18 µM [inhibitor, single point]
Nc1ccn([C@@H]2CS[C@H](CO)O2)c(=O)n1 | inactive
Cc1ccc(C(=O)Nc2ccc(CN3CCN(C)CC3)c(C(F)(F)F)c2)cc1C#Cc1cnc2cccnn12 | inconclusive: 32.1 µM [inhibitor, single point] and inconclusive: 20.2 µM [inhibitor, single point]
C[C@H](CCC(=O)O)[C@H]1CC[C@H]2[C@H]3[C@@H](CC[C@]12C)[C@@]1(C)CC[C@@H](O)C[C@H]1C[C@@H]3O | inconclusive: 28.2 µM [inhibitor, single point]
N#CC[C@H](C1CCCC1)n1cc(-c2ncnc3[nH]ccc23)cn1 | inconclusive: 4.04 µM [inhibitor, partial curve] and inconclusive: 2.02 µM [inhibitor, partial curve, poor fit] and inconclusive: 35.5 µM [inhibitor, single point]
CCc1c2c(nc3ccc(OC(=O)N4CCC(N5CCCCC5)CC4)cc13)-c1cc3c(c(=O)n1C2)COC(=O)[C@]3(O)CC | active: 12.6 µM and inconclusive: 3.6 µM [inhibitor, partial curve, poor fit]
CC(C)(N)c1ccc(-c2nc3ccccc3nc2-c2ccccc2)cc1 | inconclusive: 18 µM [inhibitor, single point]

Each compound was assayed against Luciferin 4-monooxygenase (Photinus pyralis) (UniProt P08659) (assay: Primary firefly luciferase (FLuc) qHTS assay for identification of artifact compounds. (AID 1845220; further: nearly all actives have a fitted effect of over 60% in size;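 on activity change, negative = inhibition: plate controls were DMSO vehicle for no effect and no enzyme for full effect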)). Settings: purified firefly luciferase, luminescence, 5 min; series mostly up to 54.1 µM; activity change, negative = inhibition: at the top concentration.
Source text: PI: Alexander Tropsha Ph.D.
UNC Eshelman School of Pharmacy
University of North Carolina, Chapel Hill, North Carolina
Hits from high-throughput screening (HTS) of chemical libraries are often false positives due to their interference with the assay detection technology. In response to this problem, we generated the largest publicly available library of chemical liabilities and developed a free webtool to predict HTS artifacts, both of which are described herein. More specifically, we generated, curated, and integrated HTS datasets for thiol reactivity, redox activity, and luciferase (firefly and nano) activity. Using these curated datasets, we developed and validated several Quantitative Structure-Interference Relationship (QSIR) models to predict nuisance behavior. […] These models were employed for virtual profiling of the National Center for Advancing Translational Science's (NCATS) in-house library, and 256 compounds for each assay were selected for the experimental validation of nuisance behavior. The BA for these external predictions ranged from 58 to 78% for compounds within the applicability domains of the models. […] The models developed in this study, along with aggregation models previously developed by our group (SCAM Detective) were implemented in "Liability Predictor," an online tool which may be used as part of chemical library design or for triaging HTS hits. Both the models and the curated datasets are publicly available at https://liability.mml.unc.edu/.
SEQUENCE No. (e.g., 1, 2, 3, etc.); […] (e.g., Cells, Incubation, Reagent, etc.); VALUE; DESCRIPTION.
1; Reagent; 3 uL; Luciferase substrate mixture.
2; Compounds and control; 16 nL; Kalypsis pin tool (Wako USA) equipped with a 1536-well pin head.
4; Reagent; 1 uL; Luciferase enzyme.
6; Detection; Luminescence, ViewLux microplate reader.
NOTES (numbers refer to Sequence numbers above)
1. 3 uL of luciferase substrate mixture containing D-luciferin and ATP (final concentrations of 10 uM and 10 uM, respectively) in assay buffer (10 mM Mg-acetate, 0.01% Tween-20, 0.05% bovine serum albumin, 50 mM Tris acetate, pH 7.6) was dispensed into all wells of a 1536-well assay plate (solid-bottom white plate; Greiner Bio One, Monroe, NC).
2. A Wako Pin-tool (Wako Automation, Richmond, VA) was used to transfer 16 nL of compounds (consisting of 7-plates in qHTS format, final concentration range 18.3 nM to 114 uM) or control PTC124 (final concentration range 1.22 nM to 40 uM).
3. 15 min. incubation at room temperature protected from light.
4. 1 uL of luciferase enzyme (final concentration 10 nM, Photinus pyralis luciferase) or buffer was dispensed for a final assay volume of 4 uL.
5. Plates were centrifuged (121xg, 15 seconds) and incubated for 5 minutes.
6. Samples were read for luminescence on a ViewLux CCD imager (PerkinElmer). Data were normalized to no-enzyme (0% activity) and no-inhibitor (DMSO; 100%) controls and the resulting percent inhibition data were fitted to a 4-parameter Hill equation using NCATS in-house software.

Compound | outcome | Potency | activity change, negative = inhibition
CC1(C)CC(=O)c2c(C(F)(F)F)nn(-c3ccc(C(N)=O)c(NC4CCC(OC(=O)CN)CC4)c3)c2C1 (centres undefined) | inactive | – | –
COc1cccc2nc(-c3cccs3)nc(NN3C(=O)C=C(C)C3=O)c12 | – | inconclusive: 19 µM [inhibitor, partial curve] | –
Cc1ccc(C(=O)Nc2ccc(CN3CCN(C)CC3)c(C(F)(F)F)c2)cc1C#Cc1cnc2cccnn12 | – | inconclusive: 23.9 µM [inhibitor, single point] | –
Cc1cc(C(C)Nc2ccccc2)c2nc(N3CCOCC3)cc(=O)n2c1 (centres undefined) | – | inconclusive: 37.9 µM [inhibitor, partial curve, poor fit] | –
COc1nc(C)cnc1NS(=O)(=O)c1cccnc1-c1ccc(-c2nnco2)cc1 | – | – | inactive: -1.1%
